Measured values published in PubChem BioAssay AID720536 (National Center for Advancing Translational Sciences (NCATS), 2013).
The whole screen tested about 1,600 compounds, of which about 650 (41%) were called active. So high a share suggests a set chosen from earlier hits. Inconclusive results, whose numbers are uncertain, are shown with a selection of clear calls. The call rests on the fitted dose curve; in most records, active means well fitted inhibition curve with a large enough effect; inconclusive means small, poorly fitted or top-dose-only effect; inactive means no such curve, though single readings can be large or run the other way. No potency is given beside an inconclusive call; the fits are too rough.

Test: qHTS for Inhibitors of TGF-b: CCL64 Cells Orthogonal Assay for Cherry Picks; further: nearly all actives have a fitted effect of over 65% in size;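 on activity, negative = inhibition: 0% = stimulated DMSO wells and full inhibition = unstimulated wells without TGF-beta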
Conditions: CCL64 CAGA-GFP reporter, TGF-b stimulated, GFP fluorescence, 18 h; activity, negative = inhibition: at 46.1 µM (top of the series)
Procedure, shortened: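 CCL64 cells carrying a CAGA-GFP reporter (1000/well, DMEM with 1% FBS) were pre-incubated 2 h at 37 degrees C, given compound, then stimulated with 500 pg/mL TGF-beta for 18 h. Per-cell GFP fluorescence was summed per well.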
Potency means the concentration at half of the fitted maximal effect; tags describe the fitted curve by direction and shape.

Row | Compound | activity, negative = inhibition | Potency
1 | CN1CCN(S(=O)(=O)c2ccc(Sc3nc4ccccc4[nH]3)c3nsnc23)CC1 | inactive: 6.07% | 
2 | O=C(Nc1cccc(S(=O)(=O)Nc2ccccc2Cl)c1)c1ccc(Cl)nc1 | inactive: -1.72% | 
3 | COc1ccc(C2/C=C\CN(C(=O)C3CC3)[C@H](Cc3ccccc3)C(=O)N2Cc2ccc(F)cc2)cc1 (some centres not stated) |  | inconclusive [inhibitor, partial curve]
4 | COc1ccc(Cl)cc1Cn1c(C)c(C(=O)NCc2ccc(F)cc2)sc1=O |  | inconclusive [inhibitor, single point]
5 | COC(=O)c1ccc(C(=O)OC)c(NC(=O)CSc2cccc[n+]2[O-])c1 | inactive: -7.82% | 
6 | O=C(NC(c1ccccc1)c1ccc2ccccc2n1)C1CCN(CCOc2ccc(Cl)cc2Cl)CC1 (configuration not stated) |  | inconclusive [inhibitor, single point]
7 | CCCCOC(=O)Nc1ccc(S(=O)(=O)Nc2ccc([N+](=O)[O-])cc2)cc1 | inactive: -13.7% | 
8 | O=C(C1CCC(=O)N(C2CCCCCC2)C1)N1CCN(c2ccccc2Cl)CC1 (configuration not stated) |  | inconclusive [inhibitor, partial curve]
9 | Clc1ccc2nc(-c3ccco3)c(Cc3ccccc3)n2c1 |  | inconclusive [inhibitor, partial curve, poor fit]
10 | O=C(Oc1c(CN2CCOCC2)cc(Cl)c2cccnc12)c1ccccc1 |  | inconclusive [inhibitor, single point]
11 | O=C(NC[C@@H]1CC[C@@H](Cc2ccc(-c3ccccc3)cc2)O1)Nc1ccc(Br)cc1 | inactive: -6.62% | 
12 | O=C(Nc1ccc(Cl)cc1)N(Cc1nc2ccccc2c(=O)[nH]1)Cc1cccs1 |  | inconclusive [inhibitor, single point]
13 | C[C@]12c3[nH]c4cc(-c5ccco5)ccc4c3CCN1C(=O)[C@@H](CC(=O)NCC13CC4CC(CC(C4)C1)C3)C[C@@H]2C(=O)N1CCOCC1 |  | inconclusive [inhibitor, single point]
14 | COc1cccc(-c2cnc3c(NC=O)cc(-c4ccccc4Oc4ccccc4)cn23)c1 |  | inconclusive [inhibitor, single point]
15 | O=C(c1ccc(Cl)cc1)C(CN1CCCCC1)c1ccccc1 (configuration not stated) |  | active: 2.31 µM
16 | CCOc1ccc(C(=O)NC(=S)Nc2cccc(NC(=O)c3ccco3)c2)cc1[N+](=O)[O-] |  | inconclusive [inhibitor, single point]
17 | COc1cc(C2c3cc4c(cc3OC(NCc3ccccc3)C2C)OCO4)cc(OC)c1OC (configuration not stated) |  | inconclusive [inhibitor, full curve, poor fit]
18 | Cc1cc(C)nc(S/C=C/C(=O)c2ccccc2F)n1 |  | active: 6.51 µM
19 | COc1cc(O)c(C(CC(=O)N2CCCC2)c2cc(OC)c(OC)c(OC)c2)c(OC)c1 (configuration not stated) | inactive: -12.6% | 

Row | Compound | activity, negative = inhibition | Potency
20 | Fc1ccc(-c2csc3ncnc(N4CCc5ccccc5C4)c23)cc1 |  | inconclusive [inhibitor, single point]
21 | Cc1ccc(C)c(OCCC(=O)Nc2cccc(S(=O)(=O)N3CCCCC3)c2)c1 |  | inconclusive [inhibitor, single point]
22 | CCN1CCN(S(=O)(=O)c2ccc(Cl)c(C(=O)N(C)CCOc3ccc(Cl)cc3)c2)CC1 |  | inconclusive [inhibitor, single point]
23 | O=C1N[C@@H](c2ccccc2)COC(=O)[C@@H](Cc2ccc(F)cc2)C/C=C\C[C@@H]1CC(=O)N(CCO)Cc1ccccc1 |  | inconclusive [inhibitor, single point]
24 | CC1=C(C(=O)N(C(C)C)C(C)C)CC(CC(=O)NC(c2ccccc2)c2ccccc2)C(=O)N1Cc1ccc(C(C)(C)C)cc1 (configuration not stated) |  | inconclusive [inhibitor, single point]
25 | COc1cc2c(c(OC)c1OC)-c1ccc(SC)c(=O)cc1C(NC=O)CC2 (configuration not stated) |  | inconclusive [inhibitor, full curve, poor fit]
26 | Cc1ccc(NC(=O)CNc2ccc(Cl)c(Cl)c2)cc1S(=O)(=O)N(C)C |  | inconclusive [inhibitor, single point]
27 | Cc1ccc(-c2csc(NC(=O)CCNC(=O)c3ccc(Cl)cc3)n2)cc1 |  | inconclusive [inhibitor, single point]
28 | CC1(C)Cc2c(cnn2-c2ccccc2)-c2c1c1ccccc1n2CC(O)CBr (configuration not stated) |  | inconclusive [inhibitor, single point]
29 | Nc1nnnn1/N=C/C(Br)=C/c1ccccc1 |  | inconclusive [inhibitor, single point]
30 | O=C(Nc1ccc(N2CCN(c3ncccc3C(F)(F)F)CC2)nc1)c1cccs1 |  | inconclusive [inhibitor, single point]
31 | COc1cc2c(c(OC)c1OC)-c1ccc(OC)c(=O)cc1C(NC(=O)c1ccccc1)CC2 (configuration not stated) |  | inconclusive [inhibitor, full curve]
32 | Cc1ccc2c(C)ccc(O)c2n1 | inactive: -22.6% | 
33 | Cc1csc2c(N3CCN(C(=O)c4ccc(C(C)(C)C)cc4)CC3)ncnc12 |  | inconclusive [inhibitor, single point]
34 | COc1ccc(Cc2c(-c3ccccc3)nc3ccc(Br)cn23)c(C)c1 |  | inconclusive [inhibitor, single point]
35 | CC(C)(C)c1ccc(/C=C2\SC(=O)N(CCNC(=O)c3cccc(S(=O)(=O)N4CCOCC4)c3)C2=O)cc1 |  | inconclusive [inhibitor, single point]
36 | CN1CCN(Cc2cc(COCc3ccccc3)c3cccnc3c2O)CC1 |  | active: 7.31 µM
37 | CCN1CCN(c2ccc(S(=O)(=O)N3CCCCC3)cc2NC(=O)c2ccc([N+](=O)[O-])s2)CC1 |  | inconclusive [inhibitor, single point]
